# Laboratory results published in PMC4336329 (PLoS ONE, 2015).
# Among all 310,000 compounds or so, about 14,000 (4.5%) showed an effect of 50% or more. The effect is printed as a negative number. The list shows a part of the results.
# Molecular target: human ether-à-go-go-related gene (hERG) potassium channel (human, UniProt Q12809)
# Assay: primary screen, population patch clamp on CHO cells stably expressing hERG
# 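Also: peak tail current of the secondary pulse compared with the same well before compound.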
# Sequence of human ether-à-go-go-related gene (hERG) potassium channel (Q12809 whole entry, looked up): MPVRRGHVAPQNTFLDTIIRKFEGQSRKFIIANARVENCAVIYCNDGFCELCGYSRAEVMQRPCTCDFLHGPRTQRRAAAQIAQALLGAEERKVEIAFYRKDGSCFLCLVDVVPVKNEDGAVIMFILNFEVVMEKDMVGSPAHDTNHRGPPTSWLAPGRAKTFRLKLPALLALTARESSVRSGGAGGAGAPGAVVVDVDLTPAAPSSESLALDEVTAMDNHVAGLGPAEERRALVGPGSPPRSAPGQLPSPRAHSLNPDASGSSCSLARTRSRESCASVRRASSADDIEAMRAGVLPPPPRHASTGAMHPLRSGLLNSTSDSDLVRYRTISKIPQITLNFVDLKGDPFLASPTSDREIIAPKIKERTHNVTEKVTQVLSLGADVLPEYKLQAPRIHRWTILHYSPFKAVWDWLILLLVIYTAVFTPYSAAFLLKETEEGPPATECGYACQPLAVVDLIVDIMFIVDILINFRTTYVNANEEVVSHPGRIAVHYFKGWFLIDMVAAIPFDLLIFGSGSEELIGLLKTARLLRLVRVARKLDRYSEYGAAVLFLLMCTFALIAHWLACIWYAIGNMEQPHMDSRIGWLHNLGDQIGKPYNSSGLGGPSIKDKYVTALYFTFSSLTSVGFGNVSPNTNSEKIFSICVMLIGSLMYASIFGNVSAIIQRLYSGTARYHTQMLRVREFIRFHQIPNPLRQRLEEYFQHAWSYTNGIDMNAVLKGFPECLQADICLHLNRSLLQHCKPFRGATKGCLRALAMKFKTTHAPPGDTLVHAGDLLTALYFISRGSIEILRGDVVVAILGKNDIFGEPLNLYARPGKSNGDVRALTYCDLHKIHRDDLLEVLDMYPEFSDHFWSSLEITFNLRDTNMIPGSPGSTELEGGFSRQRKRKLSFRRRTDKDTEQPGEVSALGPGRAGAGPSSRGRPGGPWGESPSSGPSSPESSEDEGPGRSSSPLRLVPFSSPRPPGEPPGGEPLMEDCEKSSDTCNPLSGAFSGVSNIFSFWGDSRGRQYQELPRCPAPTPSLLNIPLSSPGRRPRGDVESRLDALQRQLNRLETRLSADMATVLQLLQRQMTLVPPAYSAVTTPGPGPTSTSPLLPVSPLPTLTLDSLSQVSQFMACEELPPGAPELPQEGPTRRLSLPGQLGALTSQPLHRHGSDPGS
row,Compound,"hERG current change (%, negative = inhibition) at 10uM"
1,CCOc1ccc(S(=O)(=O)N2CCN(C(=S)NCc3ccco3)CC2)cc1,-32.4%
2,O=[N+]([O-])c1cccc(/C([O-])=C(/C(=S)Nc2ccccc2)[n+]2ccccc2)c1,-12.4%
3,Cc1nc(SCCC(=O)O)c2cc(-c3ccccc3)sc2n1,5.56%
4,Fc1ccc(N=Cc2ccc[nH]2)cc1,13.9%
5,Cc1ccc(S(=O)(=O)N2c3ccccc3CC2C)cc1 (stereo not shown),13.4%
6,Cc1cccc(CCNS(=O)(=O)c2cc3c(cc2C)NC(=O)CO3)c1,-34.4%
7,OC1(C#CCN2CCOCC2)CCCCC1,15.4%
8,Cc1ccsc1C(=O)OCC(=O)NC1CCS(=O)(=O)C1 (stereo not shown),9.74%
9,Cc1nn(S(=O)(=O)c2ccc(C(C)C)cc2)c(C)c1S(=O)(=O)N1CCOCC1,5.24%
10,O=C(Nc1ccc(Cl)cn1)c1ccccc1[N+](=O)[O-],-6.4%
11,Oc1ccc(C[C@@H]2CNC(=S)N2CCc2cc(C(F)(F)F)cc(C(F)(F)F)c2)cc1,2.28%
12,CCCCn1c(=S)[nH]c2ccc(N3CCOCC3)cc2c1=O,6.93%
13,COCCCNC(=O)CSC1=Nc2ccccc2C2=NC(c3ccccc3)C(=O)N12 (stereo not shown),-22.2%
14,O=C(N/N=C/c1cccs1)c1cccc(NC(=O)c2ccccc2Cl)c1,-11.2%
15,Cc1nc2c(C)cccn2c1/C(O)=C1\C(=O)C(=O)N(CCN2CCOCC2)C1c1cccs1 (stereo not shown),11.6%
16,CCN(CC)c1ccc(NC(=O)CSc2nc3ccccc3c(=O)n2-c2cc(S(=O)(=O)N(C)C)ccc2C)cc1,2.52%
17,C=C(C)C1Cc2nc(N)nc(C)c2C1 (stereo not shown),10.8%
18,CC(=O)N(CC1CCCO1)C1(C(=O)NC2CCCC2)CCCCC1 (stereo not shown),7.61%
19,Cc1cc(NC(=O)CSCCO)no1,8.03%
20,O=C(NC12CC3CC(CC(C3)C1)C2)C1CC(=O)N(c2ccccc2)C1 (stereo not shown),4.54%
21,CSc1ccccc1C(=O)Nc1cccc([N+](=O)[O-])c1C,-18.6%
22,O=C(COC(=O)c1ccco1)NCc1ccco1,13%
23,Cc1cc(SCC(=O)c2cc3ccccc3o2)nc2ccccc12,20.1%

row,Compound,"hERG current change (%, negative = inhibition) at 10uM"
1,Cc1ccc(NC(=O)CCC(=O)c2cccs2)c(O)c1,6.76%
2,COc1ccccc1-c1cn(-c2ccccc2)c(=S)[nH]1,10.9%
3,CC(C)CC(OC(=O)c1ccco1)C(=O)NC1CCCCC1 (stereo not shown),-2.33%
4,CCOc1ccc(/C=N/N(C)c2ccccc2)cc1OC,15.8%
5,O=C(NCc1ccccc1F)C1CCN(C(=O)Nc2ccc(F)cc2)CC1,0.784%
6,CN(C)/N=C1\CCS(=O)(=O)c2sccc21,3.93%
7,COc1ccc(S(=O)(=O)N2CCCOC2CNC(=O)C(=O)NCc2ccccn2)cc1 (stereo not shown),-1.08%
8,O=C(Cc1ccc(S(=O)(=O)N2CCOCC2)s1)Nc1ccccc1Br,6.02%
9,CCOc1cccc(C(c2c(C)n(C)n(-c3ccccc3)c2=O)c2c(C)n(C)n(-c3ccccc3)c2=O)c1OC,19.3%
10,CC(C)CCOC(=O)C(C)Sc1n[nH]c(=O)[nH]c1=O (stereo not shown),-2.03%
11,COC(=O)c1sc(NC(=O)c2c(F)cccc2F)c(C#N)c1C,8.78%
12,COC(=O)CCN1CCN(S(=O)(=O)c2ccc3c(c2)OCCO3)CC1,12.9%
13,Cc1ccc(-c2nn(-c3ccccc3)cc2CO)cc1,-0.727%
14,CCCOC(=O)NC(CC)COC(=O)Nc1cccc(C)c1C (stereo not shown),0.265%
15,O=C(O)c1ccc(S(=O)(=O)N2CCc3ccccc3C2)cc1,20.1%
16,O=C(O)c1ccc(CSCc2c(F)cccc2Cl)o1,0.513%
17,Cc1cccc2c(C(=O)Nn3cnnc3)cc(-c3ccccc3Cl)nc12,25.8%
18,Oc1ccccc1/C=N/Nc1nc2ccccc2o1,7.33%
19,CCOC(=O)CNC(=O)CSc1nc(C)cc(C)c1C#N,9.49%
20,O=C(COc1ccc(OCc2ccccc2)cc1)NN=C1CCCC1,13.7%
21,C=CCNC(=O)c1cnc(-c2ccccc2)nc1-c1ccccc1,16.3%
22,COc1ccc(CCN(C(=O)c2cccc(F)c2)C2CC(=O)N(c3ccccc3)C2=O)cc1 (stereo not shown),-38.5%
23,O=C(O)c1ccc(/C=N/N2CCN(C3c4ccccc4-c4ccccc43)CC2)cc1,12.1%

row,Compound,"hERG current change (%, negative = inhibition) at 10uM"
1,CCN(CC)S(=O)(=O)c1cccc(C(=O)N/N=C/c2ccc(OC)c(O)c2)c1,3.55%
2,CCOC(=O)Cc1csc(NC(=O)COc2cccc(C)c2)n1,12.5%
3,CCOC(=O)c1c(C)[nH]c(C(=O)COc2ccc3c(c2)OCO3)c1C,5.31%
4,CCC(=O)Nc1ccc2c(c1)ncn2C,48.6%
5,CS(=O)(=O)N(CC(=O)N1CCOCC1)c1ccc(Cl)cc1,20.7%
6,CC(C)(C)NC(=O)NC(=O)CSc1ccc(S(=O)(=O)N2CCOCC2)cn1,-11.6%
7,COc1ccccc1/C=N\NC(=O)c1ccc(COc2ccc(C)c(C)c2)o1,8.48%
8,c1coc(-c2ccnc3ncnn23)c1,8.93%
9,Nc1nc2ccccc2cc1-c1cccs1,-1.47%
10,Cc1ccc(C)c(NC(=O)C2=CCN(S(=O)(=O)c3ccc(F)cc3)CC2)c1,11%
11,O=C1NC(=O)N(c2ccccc2)C(=O)/C1=C\c1ccc([N+](=O)[O-])s1,0.575%
12,COc1cccc(N2CCN(c3ccc4nnc(CCC(=O)Nc5ccc(F)cc5)n4n3)CC2)c1,0.895%
13,CCc1c(C)nc2ncnn2c1N1CCCC(C(=O)NCc2cccs2)C1 (stereo not shown),-19.1%
14,CN1CCN(c2ccc(NC(=O)c3ccco3)cc2Cl)CC1,-16.8%
15,CN(CC(=O)Nc1ccccc1Cl)C(=O)CCSc1ccc(F)cc1,-21.1%
16,COc1ccc(OC)c(Nc2nc(-c3sc(NC(=O)c4ccccc4)nc3C)cs2)c1,11.2%
17,COc1ccc(C(=O)Oc2cc3c4c(c2)C(C)=CC(C)(C)N4C(=O)C3=O)cc1OC,-2.65%
18,CC(C)c1ccc(NC(=O)C2CSC3(C)CCC(=O)N23)cc1 (stereo not shown),2.4%
19,Cc1cc(C)c(C#N)c(N2CCN(c3ccccc3)CC2)n1,5.03%
20,O=C(O)c1cccnc1Br,9.22%
21,CCn1c(-c2csc3ccccc23)n[nH]c1=S,2.39%
22,NNC(=O)CNC(c1ccccc1)c1cc(Br)ccc1NC(=O)c1cccc(Cl)c1 (stereo not shown),-25.2%
23,Cc1ccc(-n2nc(C)c3c(C)c(CCC(=O)NC(C)c4ccccc4)c(C)nc32)cc1 (stereo not shown),13.5%

row,Compound,"hERG current change (%, negative = inhibition) at 10uM"
1,Cc1cccc(C(=O)N/N=C/c2ccccn2)c1,-8.78%
2,Cc1ccc(C)c(S(=O)(=O)N2CCN(C(=O)c3ccccc3Cc3ccccc3)CC2)c1,1.31%
3,O=C1NC2=C(C(=O)OC2)C(c2ccc(OC(F)(F)F)cc2)N1 (stereo not shown),3.82%
4,COc1cccc(Nc2ccc(N3CCCCC3)cc2)c1OC,-7.84%
5,CCOC(=O)c1ccc(NC(=O)C2CCCN(c3cnccn3)C2)cc1 (stereo not shown),-11.7%
6,CC1(C)OC(=O)N(CCc2ccccc2)C1(C)O (stereo not shown),-8.75%
7,Fc1ccc2[nH]c3c(N4CCc5ccccc5C4)ncnc3c2c1,19.3%
8,O=C(NCc1ccco1)c1cc2nc(-c3ccc4c(c3)OCO4)cc(C(F)(F)F)n2n1,-14.2%
9,Cc1cccc(NC(=O)c2cccc(NC(=O)Cc3cccs3)c2)c1,4.72%
10,CN(C(=O)COC(=O)/C=C/c1ccc(Cl)c(Cl)c1)c1c(N)n(Cc2ccccc2)c(=O)[nH]c1=O,17.2%
11,NS(=O)(=O)c1ccc(NC(=S)NC(=O)/C=C/c2ccco2)cc1,15.2%
12,COc1cccc(-c2cc(C(=O)N3CCN(c4ncccn4)CC3)c3ccccc3n2)c1,-8.78%
13,O=S(=O)(c1ccc(F)c(F)c1)N1CCN(c2ncccn2)CC1,13.7%
14,COc1cccc(C(=O)CN2C(=O)C(C)(C)Oc3ccc(C(=O)N4CCOCC4)cc32)c1,5.13%
15,CCCNC(=O)c1c(CSc2ccccc2)noc1C(=O)NCc1ccccc1,0.00178%
16,CCC(C(=O)N1CC2(C)CC1CC(C)(C)C2)N1C(=O)c2ccccc2C1=O (stereo not shown),-18.3%
17,CN1CC(=O)N=C1N.Cl,-50.1%
18,Cc1cccc(C)c1Nc1nc2ccccc2o1,-21.9%
19,C=CCN(c1ccccc1)S(=O)(=O)c1cccc(C(=O)N(CC)CC(=O)Nc2c(F)cccc2F)c1,11.3%
20,c1ccc2c(COn3nnc4ccccc43)cccc2c1,-23.2%
21,Nc1ccc(CNC(=O)OCC2c3ccccc3-c3ccccc32)cc1,1.51%
22,CC(C)c1ccc2oc(-c3cc(N)ccc3O)nc2c1,3.92%
